Source: the supplement of paper PMC11417369
The other results are listed elsewhere or left out.

The sequences below were run on PfAP2-HC AP2 domain (GST-tagged) (assay: gcPBM binding intensity (ln(normalized median fluorescence intensity)); higher = stronger DNA binding).
Outline: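 GST-tagged P. falciparum DNA-binding domains, expressed in E. coli (about 25 μg on average), were applied for 1 h to an Agilent 4 × 180k array of primer-extended double-stranded 36-bp intergenic genomic probes plus negative controls. The binding buffer was 1× PBS with 1% milk, 0.2 mg/ml BSA, 0.5% salmon testes DNA and 0.03% Triton X-100. Bound protein was detected with Alexa488 anti-GST antibody and scanned at 488 nm. Binding intensity is the highest Masliner-normalised natural-log median intensity across replicate spots of either probe orientation.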

Sequence	gcPBM binding intensity (ln)
ATTTACATTCACTTATGTACTTATATAATTTTATTT [XGTACX_site8150]	9.93
AATACATAATAACATGTACACACATTCTTCTATAAA [CACACA_site9344]	9.82
TATACGAAATTGTGCACACATATATTTATGTATGTA [CACACA_site1509]	9.89
TTAAAAGAATATAATGCACACATTATTTTATTTTAT [CACACA_site3772]	9.68
AAAAAAAACGAACACACACACATACAAAATCTATAT [CACACA_site6795]	11.1
TACCCACGTATATATATACACACTAATATACACCCA [CACACA_site9381]	9.88
ATTTATATATAATTTTGTACGAAAAAAATAAGGTAT [XGTACX_site3578]	9.64
TATATATTTATTAAATGTACATAACAAAAATGGTAT [XGTACX_site3577]	9.76
TGCATACATAAATGTATATATTAATATATATCATAT [GTGCAC_negctrl_site252]	9.63
AAATAAAGTAAAATATGTACATAAATTAAAACACAT [XGTACX_site8539]	10
TTAAATGAAAAAATATGTACGTATAATAAGAAATAT [XGTACX_site6619]	9.8
GTATGAGTCGTAGAGTGTACTCTGGAGAAAACTACA [XGTACX_site4942]	9.53
TTTTTTCTTAGTTATACATGCAAAATAAATAAATAA [TGCATGCA_site410]	9.17
TATTTTTTCTTAAACACACACATATATATATAGAAT [CACACA_site2836]	9.91
TATAACGCTTGCAGCTGTACAAAAATAATCAAACTG [XGTACX_site2464]	9.37
TTTTTTTTTTTGTTCACACATATACTTTTATTTTGG [CACACA_site4250]	9.68
AATGCTATCATTAATGCACACATTTAAACTTAATAT [CACACA_site5878]	9.8
TTTGTTTTAAATATTATACACACGTAAAAGTAGAAT [CACACA_site214]	9.65
GGAAACCTTTTTTTTACACACAATATATTAATACTT [CACACA_site1403]	9.94
TACACCCTATTTTTATGTACTTATTTGATTTACACA [XGTACX_site8172]	9.86
ATATAAATACGGTGTGCACACACATAATATATATAT [CACACA_site2271]	10.5
CAAATTTAAAAAAAATCACACACAGAAAAAAAAAAA [CACACA_site8728]	10.1
CAAGAAAATGGACACACACACATATATATATATATA [CACACA_site6010]	10.2

Sequence	gcPBM binding intensity (ln)
TGTATACGCATATGTACACACATATATATGTATATG [CACACA_site3087]	9.87
GTGTAATTATCAGCATAAATATGGTACATACATAAA [CACACA_negctrl_site323]	9.69
AAAAGATTTATACATACACACATATTATAGTCACAT [CACACA_site7701]	10.2
TACGAAAGGTAATATTGTACATTACAAAATTTTATA [XGTACX_site5512]	9.43
TATGTATAAATATTAACACACAAAAAAAAAAAAAAA [CACACA_site6938]	9.56
AATAAGCAGAAACACACACACAAAAAAAAAAAAAAA [CACACA_site719]	10.1
ATATAAACAAAGCAGTGCACGTAAACAAAACATATA [CACACA_negctrl_site1076]	10.2
GTTTGATAACACCTACAAACTCTTTTTTTTTTTTTT [CACACA_negctrl_site1134]	9.51
AAATGAAGATTTAAATGTACGAGAGGGTATACAAAT [XGTACX_site5075]	9.89
CATAATATTAAATCAGTGCAAATATACAGAATAAAT [GTGCAC_site9786]	9.78
GACTTCTCCATATACACACACCAACAAATATAAAAA [CACACA_site7331]	10.1
AAATTTATAAATTAAAGTACATATTTCTTGAATATT [XGTACX_site859]	9.54
TATTAAATTATATAGACACACATTATGTATATATAT [CACACA_site345]	9.78
TATAGATACACTTTGTGTACATAAAAATTGTATTAA [XGTACX_site7137]	9.66
CTATACAATAAAAATTGTACATACATATATGTTATA [XGTACX_site5309]	9.6
ATAATATGTTATTAAGTGCATATTAATTATTATTAT	9.6
AATTTTTCTTTTTTTTGTACAGAATATATATTTTAT [XGTACX_site1419]	9.69
ATATTTATGTAATGTTTGATTTTTTTTTTATGTGTG [CACACA_negctrl_site1422]	9.88
ACATATACATACATATGTACATATACATAAATATAT [XGTACX_site1285]	9.79
AAAAAAAAAATTGAAAGTACACAAATGGGGTATTAT [XGTACX_site3960]	9.9
TACTGTTTAAAATATACACACATAATCAAAAAAAAA [CACACA_site2510]	9.71
TATATATTTACATATTGTACAATATAAAAATAATTA [XGTACX_site19]	9.28
TCGTTATCCATCTTCACACATATATATAGTAATATA [CACACA_site5492]	9.75

Sequence	gcPBM binding intensity (ln)
TATATATATCTTTTGGTGCATATTTCGAATATATGT	9.66
TCAAAGGAATTTTTATGTACATATAAACTTTATTCT [XGTACX_site3432]	9.73
AAAAAAAAAAAAAAATGTACATATATATTTATATAT [XGTACX_site229]	9.53
AACCCCAAGCCGTACTGTACATATATTTTTATTTTA [XGTACX_site142]	9.91
AAAAGTTGTATTTGCACACATAAAAAAAAGATATTA [CACACA_site3840]	9.97
TATAATATAAAAAAAAGTACACGAATTTTTTTTCAG [XGTACX_site6105]	9.52
AAATAAATTTGACCAGTGCAATAACTTTGTATACCT [GTGCAC_site9446]	9.63
ACAATATATTTTTGAGCATGCGCAAAAGAGAATGCA [TGCATGCA_site566]	9.66
ATCCAAAAGAAAAATAGTACAGATATGAACAATATG [XGTACX_site6944]	9.65
TAAAATCAATGTTCTTGTACTTAAAATGTTTGTTCT [XGTACX_site5490]	9.72
TATTATTCTACTATTATATTCTATATTATTTATAGT [CACACA_negctrl_site499]	9.78
ATATATCTATATAGAAATGTATATATATATATGTGT [TGCATGCA_negctrl_site349]	9.77
AGTATAAAATTTGGTTGTACATTTTTAAAAAAATTA [XGTACX_site7519]	9.37
AAAATTAAATTATTTACACACAATATTAAAATATTT [CACACA_site3244]	9.62
TTTTTTTTTTTTTATACACACATTAAAATAAAAAAG [CACACA_site3946]	9.31
AAAGAAAAAAAAAAAACACACAAAAAAAATCAAAAT [CACACA_site2871]	9.89
CTCTTCCTTAATTTTTGTACTTAAAATTTTTTTTTT [XGTACX_site1628]	9.79
TTATGCAAAAATAAATCAATATGTTGATATGTAAAT [GTGCAC_negctrl_site128]	9.66
AACATATACTGTTTATGTACACATTGTTATATTAAT [XGTACX_site4276]	9.81
ATATAATTTAATTTCTGTACATAAGAGAAAAAACAA [XGTACX_site4865]	9.62
TACATTTTATGCATTTGTACACAAATAAATAAATAA [XGTACX_site2652]	9.42
ACTTTAAAAAGATTCACACAAAATATATAAAAATAT [CACACA_site5334]	9.5
ATATCAATTTTTGGTGGTACGTAGGAAGTTTCAGAA [XGTACX_site6881]	9.66

Sequence	gcPBM binding intensity (ln)
ATTGATCTTTATTGTTGTACATTAAACGTTAATTTT [XGTACX_site1788]	9.79
TACCTATAAAAGTACACACACACACGGATATAAATA [CACACA_site6569]	10.8
ACTATAAATATATACACATGCGCACACACAAGTGGG [TGCATGCA_site432]	10.1
AATAAAAAAATTAAAATTAAAAAATTAAAACTTAAA [CACACA_negctrl_site987]	9.49
ATGGAAATTTTATCATGTACATATACCGTTGAATAA [XGTACX_site5420]	9.63
TATTATATAATTTTAACACACAAGAATATAAACTTT [CACACA_site1363]	9.55
TAACAAAATGTAAATAAACACACATATATATATATA [CACACA_site8352]	10
AACATTCTATGTTGCACACAAAGAGAAAAATTTATT [CACACA_site3995]	9.78
TAATTTAAATGATGTAGTACATATAAATATATCTAA [XGTACX_site262]	9.51
TGAAGGAATACAGCTCGTACATGTGTAAAGAGATAA [XGTACX_site500]	9.96
AAAAAGAAAAAACTTACACACATATATACCCCCATG [CACACA_site4463]	10.2
TTAAAAAATATATGCGTGCACTAATATTTCATATGC	9.58
TGAATTAACAAATAGACACACATATATATATATATA [CACACA_site3195]	9.69
TACTATTTTTATAATACACACATATATTTGTGATAT [CACACA_site1775]	9.84
ACCATTTGTACTTACGCACACATAAAATATATATAT [CACACA_site1545]	9.97
TGTGGCCCTGCGAGGTGGTCATCATGAATACGAAAA [XGTACX_site1526]	9.23
TCAAAAATTTATATAGTGCAATATATATATAATGTA	9.45
TTGTAATATATAAAAGTGCATATATGGTTCCATATA [GTGCAC_site9544]	9.65
TAATTTATTGTACGTGCATGCTATTTTTTATTTTTA [TGCATGCA_site1059]	9.92
ATATGTGAATAAAAATGTACGTGTTCTTTTTTTTTT [XGTACX_site320]	9.72
